Results taken from article PMC7819943, “Rice protein-binding microarrays: a tool to detect cis-acting elements near promoter regions in rice”.
The other results are listed elsewhere or left out.

Target: T1, OsWOX13 (Oryza sativa, UniProt Q5QMM3 1-267)
T1 sequence: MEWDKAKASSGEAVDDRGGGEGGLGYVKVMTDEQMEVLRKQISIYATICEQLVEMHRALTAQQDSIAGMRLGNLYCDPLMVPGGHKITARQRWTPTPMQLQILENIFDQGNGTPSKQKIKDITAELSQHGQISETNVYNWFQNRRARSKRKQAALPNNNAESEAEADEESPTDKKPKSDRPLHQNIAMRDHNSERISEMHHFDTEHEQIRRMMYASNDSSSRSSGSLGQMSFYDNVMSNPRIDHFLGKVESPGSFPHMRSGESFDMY
Experiment: protein-binding microarray (RPBM); PBS, 2% BSA, 51.3 ng/ul salmon testes DNA, 50 uM zinc acetate, 200 nM TF, 25 C, 1 h; high values mean tight binding
Conditions: protein: recombinant; tags: N-terminal polyhistidine and DsRed monomer fusion (pET32a); label: CyDye5-dUTP incorporated in the synthesized complementary strand; 3' TTTTT single-stranded linker to array surface; dsDNA, one strand shown
Procedure, shortened: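 The binding signal is fluorescence intensity per array feature (arbitrary units). Readings came from an Axon 4000B scanner after a washed, 2% BSA-blocked, double-stranded custom Agilent array had been incubated for 1 h at 25 °C with 200 nM protein and 50 µM zinc acetate. The protein was a Ni–NTA-purified transcription factor fused N-terminally to polyhistidine and DsRed, expressed in E. coli BL21-CodonPlus.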

Sequence	binding signal
ATAATTTGCACAATAGATTAATCTTTTAAGCACTAAGTGACGGAGTCACCTAGTGCAG	8210 fluorescence intensity (a.u.)
TCAGATTGTTATTTGATACATCTAGATAGAAGAGGAAGTTCGGAGTCACCTAGTGCAG	7870 fluorescence intensity (a.u.)
TTTTGTGATTTTCCAAAGAATTAATCTTCGAGTGGGCTAACGGAGTCACCTAGTGCAG	3970 fluorescence intensity (a.u.)
GTGTAATTGCCGGGCGGAAAGCGCGGGTAATGAGGTGAGGCGGAGTCACCTAGTGCAG	13100 fluorescence intensity (a.u.)
ACGATTGAAACATTTTCGATCTACTTAGTGAAATAATTCCCGGAGTCACCTAGTGCAG	4210 fluorescence intensity (a.u.)
TTTCAACCAATCATATCCATCACTCATATAACTTCACGTCCGGAGTCACCTAGTGCAG	11900 fluorescence intensity (a.u.)
CAAATCATTCGTTGTTGATTTGTTTGGATAACCGGGGTATCGGAGTCACCTAGTGCAG	32100 fluorescence intensity (a.u.)
GAAATTAAGAGAAATCAATCGAGATCATGATGATATTAGACGGAGTCACCTAGTGCAG	5790 fluorescence intensity (a.u.)
TTCTCTTGATTTGCACCAGCATTTTCTTAGGGTCATTTATCGGAGTCACCTAGTGCAG	12200 fluorescence intensity (a.u.)
CAGCGTGATGAGTTGTTAACAACCATCTTGTTTATTCTGACGGAGTCACCTAGTGCAG	4510 fluorescence intensity (a.u.)
TAAATTGCGCAAAATTTATTCACGTAGATTAAGAGTCCATCGGAGTCACCTAGTGCAG	10700 fluorescence intensity (a.u.)
CTAGATTCATTAACATTTAAATGAATGTGGGCAATGCTAGCGGAGTCACCTAGTGCAG	11200 fluorescence intensity (a.u.)
ATTAATTCTAATATTAATTGTGTGCCAATGAAATTTACTACGGAGTCACCTAGTGCAG	14000 fluorescence intensity (a.u.)
TGTGATTACAAGTAGCTTTTAACAGGGACAAGCTAGCTGTCGGAGTCACCTAGTGCAG	15400 fluorescence intensity (a.u.)
CAGATGATTAGTAATGTTAATTATGAATAAACTTGCACGCCGGAGTCACCTAGTGCAG	51800 fluorescence intensity (a.u.)
ATATTTAATTATTGTAAACTTGAAAGATGGATTTATTCGACGGAGTCACCTAGTGCAG	8590 fluorescence intensity (a.u.)
GTAAATTTCGCTATATTTTAATAAAATTTAATACAGATTACGGAGTCACCTAGTGCAG	3290 fluorescence intensity (a.u.)
CGAAGTGACTATCTATTAATGAGGCAAACATAAGTTTTGGCGGAGTCACCTAGTGCAG	3930 fluorescence intensity (a.u.)
TGGTTGATAGCTACGTCACAAACGTCACACTGATCAAAGTCGGAGTCACCTAGTGCAG	3220 fluorescence intensity (a.u.)
GGCCAAATTAACTCGTACTACGAACTGGTAGCCACGAGGCCGGAGTCACCTAGTGCAG	9920 fluorescence intensity (a.u.)
GTCTAAATGTACATAATAGAACGTTCTGAAAGTAAGGCGGCGGAGTCACCTAGTGCAG	8360 fluorescence intensity (a.u.)

Sequence	binding signal
TTATCTAATCTACGATCTGATTGCACCCCTAAATTCGTTACGGAGTCACCTAGTGCAG	14400 fluorescence intensity (a.u.)
GGGTGCTGATTGCATCGTGAAAACAACACTATCAATAGACCGGAGTCACCTAGTGCAG	16600 fluorescence intensity (a.u.)
TTTTAATTTTGACGTGAACTAAACACACCCTTACACAAGGCGGAGTCACCTAGTGCAG	21000 fluorescence intensity (a.u.)
CTCACCCATTCTAATTATTTAATATTAGGTCATTCTCCAACGGAGTCACCTAGTGCAG	5360 fluorescence intensity (a.u.)
ATGTAAATCAATTGTTTAGTGTTGGATCTATAAGCAACATCGGAGTCACCTAGTGCAG	4370 fluorescence intensity (a.u.)
GGTCAATCCATGTGCAATTACATTACCTAGTAAAATAAAACGGAGTCACCTAGTGCAG	4600 fluorescence intensity (a.u.)
TTTGAGTCTAATTATGCCATGATTGGACAATGTGATGCTACGGAGTCACCTAGTGCAG	39200 fluorescence intensity (a.u.)
TAAACTAATTATTCTGTTGTGCAGTGTACCATTTACATGTCGGAGTCACCTAGTGCAG	21700 fluorescence intensity (a.u.)
TGGACATTGACAAAATCACAGATCCAGTAAGTACTAGTATCGGAGTCACCTAGTGCAG	3170 fluorescence intensity (a.u.)
ATAGGAATATAATTTATAAATAACTGATATTTGGAATTAGCGGAGTCACCTAGTGCAG	9280 fluorescence intensity (a.u.)
TATCACTGATGGACCTGTGATTCTCTGTCTGGCAGATACTCGGAGTCACCTAGTGCAG	4900 fluorescence intensity (a.u.)
GTTAATTTCTTGAGATCCTGACAATCTGGTATCAGAGCCTCGGAGTCACCTAGTGCAG	15400 fluorescence intensity (a.u.)
GTATTGTACGCTTAACGCGTTAATTACTCGCTGATTGACACGGAGTCACCTAGTGCAG	15800 fluorescence intensity (a.u.)
GACAACTAATTAATGAATAAACTAATGTAAATCCACTTGTCGGAGTCACCTAGTGCAG	27300 fluorescence intensity (a.u.)
GTGCAAATTTATTCCGTATAATTTGGAAGGATATATCTTGCGGAGTCACCTAGTGCAG	15900 fluorescence intensity (a.u.)
TTATAATTTAATCCGGCTCTAAATTTCAGCCCCGCCGTTGCGGAGTCACCTAGTGCAG	14100 fluorescence intensity (a.u.)
ATGTATAAATTGAAATACCACTGATGCATTTTACTCTGTTCGGAGTCACCTAGTGCAG	23500 fluorescence intensity (a.u.)
AATGATCTAAACTATTTAATCATATAGTTGTGCCATCATTCGGAGTCACCTAGTGCAG	8810 fluorescence intensity (a.u.)
TTAAATGTAATTCTTTATATTTTAACTTTATGCTAACCGTCGGAGTCACCTAGTGCAG	4880 fluorescence intensity (a.u.)
TCGCCTCTTAAATTAATCAAAACAGTCGACTTCTCAACCTCGGAGTCACCTAGTGCAG	3370 fluorescence intensity (a.u.)
TATAATATAGTAATTACCGTATTTCTAAATATGTCGATATCGGAGTCACCTAGTGCAG	9170 fluorescence intensity (a.u.)

Sequence	binding signal
ATTAATCACATCATCAATTTCCAAACTCATTCTGTCCGTTCGGAGTCACCTAGTGCAG	9040 fluorescence intensity (a.u.)
TAAATAGAATCTGAATGATAATTAAGAGGAGGGACGACGACGGAGTCACCTAGTGCAG	5670 fluorescence intensity (a.u.)
ACAATAATGGAATTACAGCCGCTGGCTTAGCTAGTTGCTCCGGAGTCACCTAGTGCAG	7420 fluorescence intensity (a.u.)
ACGTTTTAAATAGGTTAAATTTGATTATACTTCCTCCGTCCGGAGTCACCTAGTGCAG	5900 fluorescence intensity (a.u.)
ATTTCTTTCCTTTGACTGTCAATTTGTAAAAGTTTATATACGGAGTCACCTAGTGCAG	11800 fluorescence intensity (a.u.)
CTGCTCTTTTCATTTACAAATCATGTCCTCATGTTGCAGTCGGAGTCACCTAGTGCAG	3290 fluorescence intensity (a.u.)
ACTGCTAATTAATTGCACATGCATCATGGAAAACATGAAGCGGAGTCACCTAGTGCAG	35800 fluorescence intensity (a.u.)
GTAGTGATTGTTAGTAAGCATTCGATATATTACGCCCAAGCGGAGTCACCTAGTGCAG	17200 fluorescence intensity (a.u.)
GGCAAATTTGTAACTCTTCGGACATGAATATAAATGTGCACGGAGTCACCTAGTGCAG	11800 fluorescence intensity (a.u.)
GCCAATTACGAAGTTTGTTACATCGACATGAAGGATGTCGCGGAGTCACCTAGTGCAG	3470 fluorescence intensity (a.u.)
TTTAAATTTAATTTATAAGCATATGTATAAGCGGAACAACCGGAGTCACCTAGTGCAG	32000 fluorescence intensity (a.u.)
CGACATGTCATTAATTACTAAGACATTCTTGGCAACCAAGCGGAGTCACCTAGTGCAG	6050 fluorescence intensity (a.u.)
ATGCTGCTAGATTGAGAGAGCAAACAAAATAATAACCCCACGGAGTCACCTAGTGCAG	8900 fluorescence intensity (a.u.)
ACTCAATTAATTATATGCCAACAACTTTCTTGTTTTATGTCGGAGTCACCTAGTGCAG	27400 fluorescence intensity (a.u.)
ACAACTAATTTAATCGCTAGAGCGCATTTTACTCCTAGATCGGAGTCACCTAGTGCAG	15500 fluorescence intensity (a.u.)
CATGCACGCAATCGATTGATTAAACGAGAATTAGCAACGCCGGAGTCACCTAGTGCAG	9420 fluorescence intensity (a.u.)
ACGATCAAATTTAGACATGGAAACTCGTGACTGTGCTTATCGGAGTCACCTAGTGCAG	6550 fluorescence intensity (a.u.)
GCTAATAGCGCAATTTAGCCGGCAATAGCCGCTAAACTGGCGGAGTCACCTAGTGCAG	3690 fluorescence intensity (a.u.)
CTGATTGATTAATTTTGTACCGAATGATCAATCATTCGATCGGAGTCACCTAGTGCAG	47700 fluorescence intensity (a.u.)
AAAACGACGCTATATAATTGACAATCTGAAGGCAACCTCTCGGAGTCACCTAGTGCAG	13000 fluorescence intensity (a.u.)
GAAAAGAAAAGATAATTGAGCCCATTTCCAATAACACTATCGGAGTCACCTAGTGCAG	3650 fluorescence intensity (a.u.)

Sequence	binding signal
CGAAAGACAATTGGATTAATTGGGGATATATAGTACACTACGGAGTCACCTAGTGCAG	17800 fluorescence intensity (a.u.)
GCAAATTAGGTAGTTCATGCAAATGCTTCCATGCCTTCGTCGGAGTCACCTAGTGCAG	3790 fluorescence intensity (a.u.)
TTTTGTGATTTAGGCGACCAGAAATCAGTTAATACTCGGTCGGAGTCACCTAGTGCAG	7520 fluorescence intensity (a.u.)
CGTGCTTAATTTAGTTCCGTGGAATTGACCACGAAATCACCGGAGTCACCTAGTGCAG	8120 fluorescence intensity (a.u.)
GTGACAGGCTAGTTTATAATAGATATTTTGATATTAACTCCGGAGTCACCTAGTGCAG	3540 fluorescence intensity (a.u.)
AATTAATTAATTCATTAACTAGATGCATGATGCTAGCATACGGAGTCACCTAGTGCAG	40200 fluorescence intensity (a.u.)
ATCAAATCATATGTTAGATTGATCCTTCAATTAGTTAATTCGGAGTCACCTAGTGCAG	24400 fluorescence intensity (a.u.)
TTTTAACTGTGATTCTTTAAACTCAGTTAGAAGTTACTGGCGGAGTCACCTAGTGCAG	10200 fluorescence intensity (a.u.)
CTTTTGATTTGGAGCAGTATAAACAGCCGTAGAGGTGGCACGGAGTCACCTAGTGCAG	17900 fluorescence intensity (a.u.)
CAGTGTGATTTAAGAATTTTCAACTGTAAAAGAATAGGAGCGGAGTCACCTAGTGCAG	10000 fluorescence intensity (a.u.)
ACTGATTGACGTTTCTCATAACTAAAATATAGGTATTGTGCGGAGTCACCTAGTGCAG	60900 fluorescence intensity (a.u.)
CCTTAATAGAGGATTTCCAAAATATGTGAGTGATTTGTTGCGGAGTCACCTAGTGCAG	21300 fluorescence intensity (a.u.)
TGCTCAATCACACACACACACGCGTGTAATATTAAGATTTCGGAGTCACCTAGTGCAG	10500 fluorescence intensity (a.u.)
GTGATAAATTATTTCACAAATATGCAAGGTCAAATTTAACCGGAGTCACCTAGTGCAG	11900 fluorescence intensity (a.u.)
GCCCCTTCGTCAATTTGTAATGTATTTTGTACAGTAGGACCGGAGTCACCTAGTGCAG	5220 fluorescence intensity (a.u.)
AGAACTAGTGATTAGCGGCTGCATGCAAGCATTTAGTTGGCGGAGTCACCTAGTGCAG	6820 fluorescence intensity (a.u.)
ATTTATACCTAAATTAACAAATCATCAATATACATCATTGCGGAGTCACCTAGTGCAG	10200 fluorescence intensity (a.u.)
AATAATTTGACAATTGAGCAGAAATGCCGACCATGGGAAGCGGAGTCACCTAGTGCAG	29900 fluorescence intensity (a.u.)
TTCCCGATAATTGAACTGTAGCATTATAAAAGGGCATCAGCGGAGTCACCTAGTGCAG	31500 fluorescence intensity (a.u.)
TTGATTTGACGCGCGCGATTTCTTCGTGCCATTTGCGACGCGGAGTCACCTAGTGCAG	14000 fluorescence intensity (a.u.)
TTTAGATTTATAGTATTAAAATATGTTATCTTTTATCAGGCGGAGTCACCTAGTGCAG	9030 fluorescence intensity (a.u.)
